In the supplement of paper PMC12632987:
Whole data set: some 4,500 sequences, median “median log2 fold change of GCK-ALFA target abundance (FLAG IP / Myc IP barcode read proportion)” near 0.078, cut for the lowest 2% near -0.6. Some of the results follow.

B1: GBRAP_80_6799 (protein)
chain: AEAALAAALAALAEIDPEIAERVARIVERARALGVSDADLADLVAAIAKLAKADKERARELVEELEEDLAEEEEEGDTARAAAVVRVHAGNALLEVEELE
B2: GBRAP_137_3676 (protein)
chain: SKVEIEIKEEDGLVEITVTVYDPEKAEETEEKLLDIAHEVGALAVAIKRNEDGSLEITIVVPEEKGEEAEKKVLELAKEYDEVIIKKEKDGKTEEEVIKK
B3: GBRAP_52_6291 (protein)
chain: SEEEVEKLVEEIVKLIKAGKLEEAIKLAKEAAKELSLEEVLLLGEKLIERIKELPEKDLDKAWEVIEALAEEIEKIFGAEEEADYLEARAAAAIYERLQK
B4: GBRAP_52_6047 (protein)
chain: SEEEIRRLAREAYEAMLAGDEERARALLREIFATKDEEKLEVFLETMVELAREARPEEHDAVARLVELAEEVGREAGIPEEFLDDFEARVFAAMYEAEQR
B5: GBRAP_35_5575 (protein)
chain: DTDETIVEMLLSTIEDLTLAVPDMPLETVVAAANALVRSVRELAEELKNDPEALKRLREAVQALLDAIRRHHADDPAAQAAAAALEDTAKYLEELAKKAE
B6: GBRAP_139_3749 (protein)
chain: MSTEEVIAQARELVRRLDEDPEAAIEALAELLSSLDDEKREAAARAIAEELLSKPYDEAEAFLEALAKRLREEYGDEDGAEIVEAEANRTLAEIAVREEA
B7: GBRAP_11_2925 (protein)
chain: KKEKLKEIAELAEELAELIEKLIKEGVDNEELIKEAEEKLKELKELVEKYSDEAEKKLAEIAEELFEEAKKDKENQLKYWQEMLATVRVLSGQFLLKLEE
B8: GBRAP_160_4273 (protein)
chain: SEKLKELIKELEESEKEILELVDEESPEEVKAFAVTELGSILLEAIELGVVSDEAEDKLAEIIDELEEELDEAKNASPEEIKKIIKEHYEKAKKILEEES
B9: GBRAP_52_5915 (protein)
chain: MSAELEAKLDEMLAAVKAGKLEEARAIAREIVESLDDEELRELVELFAERVRAAPLEDLPAWWRLAEILAEELEEAGKDEVLADDLLNRTAAAIYEKLQA
B10: GBRAP_160_4261 (protein)
chain: SEELEELIEDIEEDKEEILSLVDEISAEEVRTYAVTELGSHLLEAIELGIVSDEEEEELAEIIDELEEELTAAADASKEELKAIITKHFEKAKEILEKSK
B11: GBRAP_139_3732 (protein)
chain: SADEEKVKEVVDLTRESFATGGAKVKEVADKLNSLDEDTAEKAAEAMAEVAKDQPFDVVEAFFDALIDTLLTEHKNEDKAEIVEAARNRALAEVAVREEA
B12: GBRAP_39_5715 (protein)
chain: DEEEELELLASYFEALFDKRAYDAGISEEEAVARGLARWREWAERHPEHRERIERLIREAEELGPEARRVLAAAAAGVEAGMPLEEAMAVAEYRFAQLKA
B13: GBRAP_52_6320 (protein)
chain: MKEEAKKLAEELVKLVKEGKLEEARKLAREIARNKSEEFLKMIGEVLAEMAKTANEEEIDAIVEAAEILAEELEKEGYDEAFASDILAKVAAAAYENELK
B14: GBRAP_52_5885 (protein)
chain: ALEEAVKLLEELIEAVKAGDEEKARELAKKIVENFDEETILEAVEKVAKELLDKSLEEAEAFWEAAELLAKELLEKGGSEEVASYIEAIAGATLYKVSQK
B15: GBRAP_128_3538 (protein)
chain: SLEEVKKRAREVMEKIKNSSVEEAYEITKEFLEELKSLSLEEVEAAIEVLEELLPELSAEKLEAIADAMREMRPTLSPEKQRLVADLQVEALNEAEEKEE
B16: GBRAP_186_5382 (protein)
chain: EEEVEEEADKIIDELEAEGYRVIRVYIEGKSVEEIKRAIERDAEAVAALAKETGKKWALVVEVLTRKEDVEEIKEFGEELNKRMLAESGVVVRVAVGDSE
B17: GBRAP_128_3474 (protein)
chain: SVEEVVAETAATMEAIIAADPAEARKLAEALFARLATLDLESVEAAVEVIESHLPKLTAEKLEILADVARAARPAFDPEKAALLADLESEALLLAEEKEE
B18: GBRAP_128_3216 (protein)
chain: STEEAVARVRELLEQIKESDEETAKEIAKELADFIASLSLETAEAAREVIEELLPELTEEQLEILMDAFSEKSKETDGPVADVLADLAVEAGEQILEQEE
B19: GBRAP_11_2813 (protein)
chain: APPEQKEAVKKLKEAAELAEKLIEEEPGNEELLEELLKKAKEALKLVKKHLSEAHKKDAEVALELVEEAKADPENRLEYVKNALAAFRTLLANIEEELEE
B20: GBRAP_26_5493 (protein)
chain: KVEEILEELRKETEEILKDESEDLRAAVIAEAEDLLLEAEEYFEEHLDDEEAQEKAIKEATEELRKELKDFGLSEEKIEKLVEALRKAMEKIKEALKKEK
B21: GBRAP_9_7156 (protein)
chain: MKELVDKIKEVIEDAFEEIEEVVPEEVKPIVEELRKKAEKRLEELAADPNATKEEIVKEAKEILEEIEKVLSEKVDPETKKIVEAIVLTAKLEIEEIAEE
B22: GBRAP_160_4084 (protein)
chain: SEEFEKLIKEVEEIFDEAIEMMKDVSVEEAVAIALVALGEVALLIEEEESLSEEAKEELLELIDEGEEEIRAAKDKSVEEIIELLERFREKIVEKIKEAS
B23: GBRAP_52_6313 (protein)
chain: MREEMRAQAEELLALMLAGDRDGARALAEELVATLSEEELLLLAEELAKLSETLNAEELDKAMELLEILEDVMEEAGVDERVIAEIRGIVITAIYKAEQK
B24: GBRAP_160_4001 (protein)
chain: MEELEKLKKEIEELIKETIEAMEGLTPEERLTLVKGTMGEIIQLVFESPAVSEESEDEIAELGDETIEKVEENKDKPLEVWKELLEETLEKIKEILDKDE
B25: GBRAP_11_2790 (protein)
chain: KKKLLEELAKKLEEAKKLLEKALESDPNDEELWKKLEKELEEAEKLAEEAGDETTAELLKYAKEELEKAKEDPENRKEHLERALALVRVAEGLVLLDIEE
B26: GBRAP_125_2985 (protein)
chain: SMEELLEDLRRLLKALGLSEEEAEEAVRLAREHSLKQTLYAVAKALGWEEVADAVAKLTEEQAKRVVRRASEYIKEHPDITPEEVKELLLELANEELAKA
B27: GBRAP_78_6616 (protein)
chain: EKKEKIKELLEEAERKLREIIKKVPEYANEAADAAVLVGTAIYMVDTGSESKEELKETVKEAIKELEELLKKLKDAPEEAQKLAKEALELAKKALELLEE
B28: GBRAP_160_4747 (protein)
chain: KEELEKLLKEVKEIFDEGIEMLKESPASEAPTIIRGTMGEVIMEVFSSEAASDELEDEVAAIADKAEAEAAANADAPVEVHIAILEKAKEEILAIIEKEI
B29: GBRAP_14_3803 (protein)
chain: SEERKKAVEEITEETIALVREVLADAPEEVRAAVEALVEDFRRTVIEKNLNPDEIAELGDELVARVAEVLADAPEDVRARVLAVVAVNTGEVVLETEELE

target: GABARAP, O95166; experiment: median log2 fold change of GCK-ALFA target abundance (FLAG IP / Myc IP barcode read proportion) (log2 ratio); each designed protein is fused to an ALFA-tag nanobody in HEK293 cells to bring the named protein to FLAG-tagged glucokinase (GCK); Myc marks an untargeted standard; higher = target protein stabilised (more abundant); conditions: target protein: 3xFLAG-MCP-GCK-ALFA reporter; HEK293 landing pad (RPLP)
Experimental: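 LABEL-seq trans screen in HEK293 landing-pad cells. Each de novo designed 100-aa effector handle, binding the indicated effector (E3 ligase, DUB or autophagy protein), is fused to a constant NbALFA target handle and induced with 2 ug/mL doxycycline. A FLAG-MCP-GCK-ALFA target and a Myc-MCP standard reporter were transfected, and after 48 h circRNA barcodes were recovered by anti-FLAG and anti-Myc IP and sequenced. The value is the median across barcodes (at least 3 per design) of log2(FLAG/Myc read-proportion ratio), with the two transfection replicates pooled. Negative values mean degradation and positive values mean stabilisation of the target.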

GABARAP, O95166, sequence (O95166 whole entry, the tested form may be a part): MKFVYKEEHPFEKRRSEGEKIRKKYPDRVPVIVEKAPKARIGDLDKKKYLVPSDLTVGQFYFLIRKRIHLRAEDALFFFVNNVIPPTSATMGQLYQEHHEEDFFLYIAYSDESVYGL

Binder	median log2 fold change
B1	0.027
B2	0.249
B3	0.0615
B4	0.204
B5	0.13
B6	0.333
B7	0.266
B8	-0.108
B9	-0.669
B10	-0.381
B11	0.236
B12	0.0453
B13	0.275
B14	0.0702
B15	0.273
B16	0.0475
B17	0.242
B18	0.19
B19	0.23
B20	0.221
B21	0.172
B22	-0.129
B23	-0.0291
B24	-0.0236
B25	-0.266
B26	0.15
B27	0.228
B28	-0.16
B29	-0.0874
